# In PubChem BioAssay AID624330 (Southern Research Specialized Biocontainment Screening …, 2012):
# The whole screen tested about 340,000 compounds, of which about 2,100 (0.62%) were called active.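 Rule for the calls: active = first-screen hits whose inhibition reached a set limit at any dose in the follow-up dose series; inconclusive = inhibition above the set first-screen limit but never retested; inactive = the rest.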 Inconclusive results, whose numbers are uncertain, are shown.
# Biological target: Rac GTPase-activating protein 1 (Homo sapiens) (UniProt Q9H0H5)
# Chain of UniProt Q9H0H5 (Q9H0H5 whole entry, looked up): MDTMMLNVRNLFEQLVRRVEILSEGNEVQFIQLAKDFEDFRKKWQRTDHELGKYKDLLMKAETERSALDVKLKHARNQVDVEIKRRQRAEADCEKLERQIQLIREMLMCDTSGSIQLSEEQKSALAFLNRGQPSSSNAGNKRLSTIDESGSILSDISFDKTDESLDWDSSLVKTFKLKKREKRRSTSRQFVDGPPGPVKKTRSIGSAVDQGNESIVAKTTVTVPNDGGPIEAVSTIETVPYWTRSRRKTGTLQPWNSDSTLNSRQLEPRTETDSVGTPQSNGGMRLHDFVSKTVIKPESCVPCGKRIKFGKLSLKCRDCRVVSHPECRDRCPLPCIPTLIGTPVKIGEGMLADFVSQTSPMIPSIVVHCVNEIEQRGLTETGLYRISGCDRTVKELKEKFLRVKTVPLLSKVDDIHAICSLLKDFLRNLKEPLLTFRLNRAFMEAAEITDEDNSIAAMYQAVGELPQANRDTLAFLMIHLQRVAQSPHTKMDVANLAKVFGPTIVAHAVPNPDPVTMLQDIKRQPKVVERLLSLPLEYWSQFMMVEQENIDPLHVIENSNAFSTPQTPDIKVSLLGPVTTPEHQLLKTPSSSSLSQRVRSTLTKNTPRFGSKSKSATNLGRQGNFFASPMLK
# Assay: MgcRacGAP GTPase-activating activity inhibitors, confirmation, biochemical, ADP Hunter fluorescence, primary and confirmatory (AID 624330);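 note: fluorescence reports GDP produced by GAP-driven GTP hydrolysis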
# Settings: MgcRacGAP-stimulated Rac1 GTP hydrolysis, at 30 µM, active compounds read high
row,SMILES,inhibition
1,Cc1cccc(CN2CCN(c3ccc(Cl)cc3)CC2)c1,inconclusive: 33.1%
2,O=C1NC(=O)N(c2ccc(Cl)cc2)C(=O)/C1=C/c1coc2ccc(O)cc2c1=O,inconclusive: 36.2%
3,COc1cccc(CNCCc2cccc(F)c2)c1OC,inconclusive: 33%
4,O=C(COc1ccccc1)N1CCN(Cc2c[nH]c3ccccc23)CC1,inconclusive: 31.9%
5,Cn1c(O)c(/C=C2\N=c3ccccc3=C2CCNC(=S)NC2CC2)c(=O)n(C)c1=O,inconclusive: 35.9%
6,CC[n+]1c(/C=C/C=C/c2ccc(N(C)C)cc2)sc2ccccc21,inconclusive: 76.3%
7,CNC(C)Cc1ccccc1Sc1ccc(O)cc1 (configuration not stated),inconclusive: 97.5%
8,O=C1NC(=O)N(c2ccccc2F)C(=O)/C1=C/c1ccc(Sc2nc3ccccc3[nH]2)o1,inconclusive: 84.8%
9,O=c1[nH]c(=S)n(-c2ccccc2F)c(O)c1C=Nc1ccc(N2CCOCC2)cc1,inconclusive: 54.8%
10,COc1ccc(N2C(=O)/C(=C/c3ccco3)C(=O)NC2=S)cc1,inconclusive: 84.4%
11,CCOc1ccc(N2C(=O)/C(=C/c3ccco3)C(=O)NC2=S)cc1,inconclusive: 98.7%
12,COc1cccc(N2C(=O)/C(=C/c3ccc(C)o3)C(=O)NC2=S)c1,inconclusive: 38.4%
13,Cc1cccc(CN2CCN(Cc3ccc(Cl)cc3)CC2)c1,inconclusive: 44.8%
14,CC(C)Nc1ccc(Nc2ccccc2)cc1,inconclusive: 87.4%
15,O=C1NC(=O)C(=Cc2ccc(-c3ccccc3[N+](=O)[O-])o2)C(=O)N1,inconclusive: 36.6%
16,Clc1ccc(CNCCc2ccc3c(c2)OCO3)cc1,inconclusive: 34.4%
17,O=C1NC(=O)C(=Cc2ccc(Sc3ccccc3)o2)C(=O)N1,inconclusive: 45.8%
18,O=c1[nH]c(=O)n(-c2ccccc2F)c(O)c1/C=C1\C=Nc2ccccc21,inconclusive: 34.6%
19,Cc1ccc(N2C(=O)NC(=O)/C(=C\C=C\c3ccco3)C2=O)cc1C,inconclusive: 62.9%

row,SMILES,inhibition
1,CCN(CC)c1ccc(/C=C2\C(=O)NC(=O)N(Cc3ccco3)C2=O)cc1,inconclusive: 43%
2,Cc1ccc(N2C(=O)NC(=O)/C(=C/c3ccc(-c4ccc(C(=O)O)c(Cl)c4)o3)C2=O)cc1,inconclusive: 64.5%
3,N#Cc1c(/N=C/c2c(O)n(Cc3ccco3)c(=O)[nH]c2=O)sc2c1CCCC2,inconclusive: 32.4%
4,O=C1NC(=O)N(c2ccc(Cl)cc2)C(=O)/C1=C\c1ccc(Sc2nc3ccccc3[nH]2)o1,inconclusive: 75.2%
5,C=CCN1C(=O)/C(=C/c2cc(C)n(-c3cccnc3)c2C)C(=O)NC1=S,inconclusive: 49.8%
6,O=C1NC(=O)N(Cc2ccco2)C(=O)/C1=C/c1ccc(-c2cccc([N+](=O)[O-])c2)o1,inconclusive: 88.8%
7,Oc1ccccc1CN(CCc1ccccc1)Cc1ccccc1,inconclusive: 32%
8,CCCN(CC1CC1)CC(O)c1ccccc1 (configuration not stated),inconclusive: 35.5%
9,CN1CCN(CC#CCOc2ccc(Cl)cc2)CC1,inconclusive: 35.5%
10,Nc1ccc2c(c1)Cc1ccccc1-2,inconclusive: 111%
11,COc1cc(/C=C/[N+](=O)[O-])ccc1O,inconclusive: 39.4%
12,CC1=C(O)C(=O)C=C2C1=CC=C1C2(C)CCC2(C)C3CC(C)(C(=O)O)CCC3(C)CCC12C (configuration not stated),inconclusive: 67.5%
13,COC(=O)C1=Nc2ccccc2/C1=C\c1c(O)n(-c2ccc(OC)cc2)c(=O)[nH]c1=O,inconclusive: 51.8%
14,O=C(O)CCn1cc(C=C2C(=O)NC(=O)NC2=O)c(-c2cc3ccccc3oc2=O)n1,inconclusive: 32.8%
15,CN(C)CCCNCC(=O)Nc1ccc(Cl)cc1C(=O)c1ccccc1,inconclusive: 45.7%
16,Cc1ccc(N2C(=O)/C(=C/c3ccc(CN(CCC#N)S(C)(=O)=O)o3)C(=O)NC2=S)cc1,inconclusive: 62%
17,O=C1C(Cl)=CC(=Nc2ccc(O)cc2)C=C1Cl,inconclusive: 34.6%
18,Cn1cccc1/C=C1/C(=O)NC(=O)N(Cc2ccccc2)C1=O,inconclusive: 33.4%
